One assay relates to HSkMC. The assay can be described thus: cytotoxicity call (relative viability < 0.9). The conditions noted are these: 10 µM.
For another assay, the system named is HepG2. In words: cytotoxicity call (relative viability < 0.9). The conditions noted are these: 10 µM.
The subject of the next assay is S. aureus RN4220. In words: growth inhibition call (relative growth <= 0.2). Conditions: 50 µM.

Some of the results follow.

On to `Cc1ccc(S[C@]2(C(=O)NC(C)C)CC(=O)N(Cc3cc(C(F)(F)F)cc(C(F)(F)F)c3)[C@@H]2c2ccc(CO)cc2I)cc1`, for which the cytotoxicity call in the assay on HSkMC and in the assay on HepG2 was “inactive” throughout. Moreover, the growth inhibition call in the assay on S. aureus RN4220 is “inactive”.

Take `Cc1noc(C)c1S(=O)(=O)Nc1ccc2c(c1)C(=O)N([C@@H](C)CO)C[C@@H](C)[C@H](CN(C)C(=O)Nc1ccc(C(F)(F)F)cc1)OCCCC[C@@H](C)O2`: the cytotoxicity call with HSkMC and in the assay on HepG2 was “inactive” each time. For the same compound, the growth inhibition call in the assay on S. aureus RN4220 was “inactive”.

As for `COc1ccc(cc1)CN1C[C@]2(CCN(CC2)S(=O)(=O)c2cn(cn2)C)c2c([nH]c3cc(ccc23)OC)[C@@H]1CO`, the cytotoxicity call with HSkMC and in the assay on HepG2 was “inactive” throughout. Besides, in the assay with S. aureus RN4220, the growth inhibition call is “inactive”.

`COc1cccc(NC(=O)Nc2ccc3c(c2)C(=O)N(C)C[C@@H](OC)[C@H](C)CN(CCC(F)(F)F)[C@H](C)CO3)c1`: the cytotoxicity call in the assay with HSkMC and with HepG2 was “inactive” throughout. In addition, the growth inhibition call in the assay on S. aureus RN4220 was “inactive”.

For the compound `C[C@@H]1CN([C@@H](C)CO)C(=O)CCCn2nncc2CO[C@H]1CN(C)C(=O)Nc1ccc(N2CCCCC2)cc1`, the cytotoxicity call in the assay on HSkMC and in the assay on HepG2 was “inactive” in each case. In the assay on S. aureus RN4220, the growth inhibition call is “inactive”.

As to `CCN1CC2(CCN(C(=O)[C@H]3CCC(=O)N3)CC2)COc2ccccc2S1(=O)=O`, the cytotoxicity call with HSkMC and in the assay with HepG2 was “inactive” throughout. The growth inhibition call in the assay on S. aureus RN4220 was “inactive”.

In the case of `CN1CCN(C(=O)C[C@@H]2CC[C@H]3[C@@H](COC[C@H](O)CN3C(=O)C3CCCC3)O2)CC1`, the cytotoxicity call in the assay on HSkMC and in the assay on HepG2 was “inactive” in each case. Moreover, the growth inhibition call in the assay on S. aureus RN4220 was “inactive”.

For the compound `C[C@H]1CCCCO[C@@H](CN(C)Cc2ccc(C(F)(F)F)cc2)[C@@H](C)CN([C@@H](C)CO)C(=O)c2cc(NC(=O)Nc3ccc(F)cc3)ccc2O1`, in the assay with HSkMC, the cytotoxicity call is “inactive”. Also, in the assay on HepG2, the cytotoxicity call was “active”. Also, the growth inhibition call in the assay with S. aureus RN4220 is “inactive”.

Consider `CC(C)C[C@@H]1NC(=O)[C@H]2C[C@@H](C(=O)NCCCCCCNC(=O)CS)[C@@H](c3cccc(OCCO)c3)N2C1=O`, for which the cytotoxicity call with HSkMC and in the assay on HepG2 was “inactive” in each case. Also, the growth inhibition call with S. aureus RN4220 is “inactive”.

As for `C[C@@H]1CN([C@@H](C)CO)C(=O)c2cccc(NS(=O)(=O)c3cccs3)c2O[C@@H]1CN(C)S(=O)(=O)c1cccs1`, the cytotoxicity call with HSkMC and with HepG2 was “inactive” each time. Further, the growth inhibition call with S. aureus RN4220 is “inactive”.

As for `O=C(C[C@H]1C[C@@H]2c3cc(NC(=O)NC4CCCC4)ccc3O[C@@H]2[C@H](CO)O1)NCc1ccc(Oc2ccccc2)cc1`, the cytotoxicity call in the assay with HSkMC was “inactive”. Also, in the assay with HepG2, the cytotoxicity call is “active”. In addition, the growth inhibition call in the assay on S. aureus RN4220 was “inactive”.

Consider `C[C@@H]1CN([C@H](C)CO)C(=O)c2cc(NC(=O)Nc3ccc(F)cc3)ccc2O[C@@H](C)CCCCO[C@@H]1CN(C)Cc1ccc(Cl)c(Cl)c1`, for which the cytotoxicity call in the assay with HSkMC and with HepG2 was “inactive” each time. For the same compound, in the assay with S. aureus RN4220, the growth inhibition call was “inactive”.

With `O=C(CN1CCOCC1)N[C@@H]1CC[C@@H](CCn2cc(C3CC3)nn2)O[C@H]1CO`, the cytotoxicity call with HSkMC and with HepG2 was “inactive” each time. Besides, the growth inhibition call with S. aureus RN4220 was “inactive”.

Consider `C[C@@H]1CCCCO[C@H](CN(C)S(=O)(=O)c2cccs2)[C@@H](C)CN([C@H](C)CO)C(=O)c2cc(NC(=O)NC3CCCCC3)ccc2O1`, for which the cytotoxicity call with HSkMC and with HepG2 was “inactive” in each case. Moreover, the growth inhibition call in the assay with S. aureus RN4220 is “inactive”.

With `C[C@@H]1CCCCO[C@@H](CN(C)CC2CCCCC2)[C@@H](C)CN([C@@H](C)CO)C(=O)c2cc(NC(=O)CCC(F)(F)F)ccc2O1`, the cytotoxicity call with HSkMC and with HepG2 was “inactive” in each case. Besides, the growth inhibition call in the assay with S. aureus RN4220 was “inactive”.

In the case of `COc1ccc(S(=O)(=O)N(C)C[C@H]2Oc3c(NS(=O)(=O)c4ccc(F)cc4)cccc3C(=O)N([C@H](C)CO)C[C@H]2C)cc1`, the cytotoxicity call with HSkMC and in the assay on HepG2 was “inactive” in each case. The growth inhibition call with S. aureus RN4220 is “inactive”.

With `C[C@@H]1CN([C@@H](C)CO)C(=O)Cc2cc(NC(=O)Nc3ccc(C(F)(F)F)cc3)ccc2O[C@@H]1CN(C)Cc1ccc(Oc2ccccc2)cc1`, the cytotoxicity call with HSkMC and with HepG2 was “active” in each case. Also, in the assay on S. aureus RN4220, the growth inhibition call was “inactive”.

Turning to `C[C@H](CO)N1C[C@H](C)[C@@H](CN(C)Cc2ccc(C(F)(F)F)cc2)OCCCC[C@H](C)Oc2ccc(NC(=O)Cc3ccccc3)cc2C1=O`, the cytotoxicity call in the assay with HSkMC and in the assay on HepG2 was “active” throughout. Also, the growth inhibition call in the assay on S. aureus RN4220 is “inactive”.

Take `C[C@@H]1CCCCO[C@@H](CN(C)Cc2ccc(C(F)(F)F)cc2)[C@@H](C)CN([C@@H](C)CO)C(=O)c2cc(NC(=O)CCC(F)(F)F)ccc2O1`: the cytotoxicity call in the assay with HSkMC and in the assay on HepG2 was “inactive” throughout. Also, the growth inhibition call in the assay on S. aureus RN4220 was “inactive”.

Regarding `Cn1cc(-c2ccno2)c(C(=O)O)n1`, the cytotoxicity call in the assay with HSkMC and with HepG2 was “inactive” each time. For the same compound, the growth inhibition call with S. aureus RN4220 was “inactive”.

`C[C@@H]1CN([C@@H](C)CO)S(=O)(=O)c2ccc(C#Cc3ccccc3F)cc2O[C@H]1CN(C)C(=O)Cc1ccncc1`: the cytotoxicity call in the assay on HSkMC and in the assay with HepG2 was “inactive” in each case. In the assay on S. aureus RN4220, the growth inhibition call is “inactive”.

`C[C@@H]1CN([C@H](C)CO)C(=O)Cc2cc(NC(=O)Nc3ccc4c(c3)OCO4)ccc2O[C@@H]1CN(C)Cc1ccc(Oc2ccccc2)cc1`: in the assay with HSkMC, the cytotoxicity call was “inactive”. The cytotoxicity call in the assay on HepG2 was “active”. In addition, the growth inhibition call in the assay with S. aureus RN4220 was “inactive”.

On to `COc1ccc(NC(=O)Nc2ccc3c(c2)C(=O)N([C@@H](C)CO)C[C@@H](C)[C@@H](CN(C)C(=O)CCC(F)(F)F)OCCCC[C@@H](C)O3)cc1`, for which the cytotoxicity call in the assay with HSkMC and with HepG2 was “inactive” each time. In addition, the growth inhibition call in the assay on S. aureus RN4220 is “inactive”.

As to `COc1cccc(CNC(=O)C[C@H]2C=C[C@H](NC(=O)C3CCOCC3)[C@H](CO)O2)c1`, the cytotoxicity call with HSkMC and in the assay with HepG2 was “inactive” throughout. Further, in the assay with S. aureus RN4220, the growth inhibition call is “inactive”.

For `C[C@@H]1CN([C@H](C)CO)C(=O)c2cccc(NC(=O)c3nc4ccccc4s3)c2O[C@@H]1CN(C)Cc1ccc(-c2ccccc2)cc1`, the cytotoxicity call in the assay on HSkMC and in the assay with HepG2 was “inactive” each time. In addition, in the assay on S. aureus RN4220, the growth inhibition call is “inactive”.

With `Cc1ccc(S(=O)(=O)Nc2cccc3c2O[C@H](CN(C)C(=O)Nc2cccc4ccccc24)[C@H](C)CN([C@H](C)CO)C3=O)cc1`, the cytotoxicity call in the assay on HSkMC (human skeletal muscle cells) and in the assay with HepG2 was “inactive” in each case. Further, the growth inhibition call in the assay with S. aureus RN4220 was “inactive”.

Consider `C[C@H](CO)N1C[C@H](C)[C@@H](CN(C)Cc2ccc(Oc3ccccc3)cc2)Oc2c(NS(=O)(=O)c3ccc(F)cc3)cccc2C1=O`, for which the cytotoxicity call in the assay with HSkMC and with HepG2 was “inactive” in each case. Further, the growth inhibition call in the assay with S. aureus RN4220 was “inactive”.

Consider `CC1CC(OC(=O)C(O)c2ccccc2)CC(C)(C)C1` (centres undefined), for which the cytotoxicity call in the assay with HSkMC and with HepG2 was “inactive” each time. In addition, the growth inhibition call in the assay with S. aureus RN4220 was “inactive”.

Source of the values: the antibiotic and cytotoxicity screens of Wong et al. (2023).
